Experimental data: patent US8551981B2, “Furo[3,2-d]pyrimidine compounds” (AbbVie Inc., priority 2010, dated 2013)

Target: Syk catalytic domain (aa 356-635 with a C-terminal His-tag) (Homo sapiens, UniProt P43405)
Assay: In vitro Syk kinase activity by trFRET (Syk catalytic domain)
[1] = Syk IC50, Syk catalytic domain (aa 356-635), trFRET, 0.001 mM ATP
[2] = Syk catalytic domain (aa 356-635), trFRET, 0.001 mM ATP, read-out: Syk IC50

| Structure (SMILES) | IC50 [1] | IC50 (Syk IC50, class symbols A-D) | other results |
| --- | --- | --- | --- |
| c1nc2ccc(Nc3nc(NC4CC4)c4occc4n3)cc2o1 [B.5.54] | 100 to 1000 nM | – | – |
| O=S1(=O)CCN(c2ccc(Nc3nc(NC4CC4)c4occc4n3)cc2)CC1 [B.5.32] | < 100 nM | – | – |
| CC1(Nc2nc(Nc3ccc4c(c3)NC(=O)C(C)(C)O4)nc3ccoc23)CC1 [B.5.37] | – | – | IC50 [2]: 100 to 1000 nM |
| CNCC1CCN(c2nc(Nc3ccc4c(C)n[nH]c4c3)nc3ccoc23)CC1 [C.1.48] | – | < 100 nM | – |
| CC1(C)Oc2ccc(Nc3nc(N4CCC5(CCNC5)C4)c4occc4n3)cc2NC1=O (stereo not shown) [C.1.77] | – | 100 to 1000 nM | – |
| NC(=O)[C@@H]1CCC[C@@H]1Nc1nc(Nc2ccc(S(N)(=O)=O)cc2)nc2ccoc12 [B.2.7] | 1000 to 10000 nM | – | – |
| COc1cc(Nc2nc(N3CCC4(CCCNC4)CC3)c3occc3n2)ccc1N1CCOCC1 [C.1.39] | – | < 100 nM | – |
| CC1(C)Oc2ccc(Nc3nc(N4CCC(CNCC(F)F)CC4)c4occc4n3)cc2NC1=O [B.5.14] | – | – | IC50 [2]: 100 to 1000 nM |
| c1cc(-c2n[nH]c3cc(Nc4nc(NC5CC5)c5occc5n4)ccc23)ccn1 [J.1.7] | < 100 nM | – | – |
| CC1(C)C(=O)Nc2cc(Nc3nc(NC4CCC4)c4occc4n3)ccc21 [B.5.108] | < 100 nM | – | – |
| CCCNC(=O)c1ccc(Nc2nc(NC3CC3)c3occc3n2)cc1 [B.1.3] | 100 to 1000 nM | – | – |
| O=C(NC1CC1)c1n[nH]c2cc(Nc3nc(NC4CC4)c4occc4n3)ccc12 [E.2.1, N-Cyclopropyl-6-(4-(cyclopropylamino)furo[3,2-d]pyrimidin-2-ylamino)-1H-indazole-3-carboxamide] | < 100 nM | – | – |
| CC1Cc2ccc(Nc3nc(NC4CC4)c4occc4n3)cc2NC1=O (stereo not shown) [Example #6, 7-(4-(Cyclopropylamino)furo[3,2-d]pyrimidin-2-ylamino)-3-methyl-3,4-dihydroquinolin-2(1H)-one] | < 100 nM | – | – |
| CNCC1CCN(c2nc(Nc3ccc(S(=O)(=O)NCCCOC)cc3)nc3ccoc23)CC1 [C.1.56] | – | < 100 nM | – |
| O=C1NS(=O)(=O)c2cc(Nc3nc(NC4CC4)c4occc4n3)ccc21 [B.1.8] | 100 to 1000 nM | – | – |
| NS(=O)(=O)c1ccc(Nc2nc(N3CCC(CO)CC3)c3occc3n2)cc1 [B.2.6] | 1000 to 10000 nM | – | – |
| CC1(C)C(=O)Nc2cc(Nc3nc(N4CCCC(N)CC4)c4occc4n3)ccc21 (stereo not shown) [C.1.34] | – | < 100 nM | – |
| Cc1n[nH]c2cc(Nc3nc(N4CCC(CNC5CCOCC5)CC4)c4occc4n3)ccc12 [J.1.10] | 100 to 1000 nM | – | – |
| CC(C)CNc1nc(Nc2ccc(C(C)(C)C#N)cc2)nc2ccoc12 [B.5.119] | 100 to 1000 nM | – | – |
| Cn1ncc2cc(Nc3nc(N4CCC5(CCNC5)CC4)c4occc4n3)ccc21 [C.1.40] | – | < 100 nM | – |
| Cc1n[nH]c2cc(Nc3nc(N4CCC(CNCCC(F)(F)F)CC4)c4occc4n3)ccc12 [C.1.74] | – | < 100 nM | – |

| Structure (SMILES) | IC50 [1] | IC50 (Syk IC50, class symbols A-D) | other results |
| --- | --- | --- | --- |
| O=C1COc2ccc(Nc3nc(N4CCC(CNCC(F)F)CC4)c4occc4n3)cc2N1 [B.5.84] | 100 to 1000 nM | – | – |
| CC1(C)Oc2ccc(Nc3nc(N4CCC5CNCC5C4)c4occc4n3)cc2NC1=O (stereo not shown) [C.1.35] | – | 100 to 1000 nM | – |
| NS(=O)(=O)c1ccc(Nc2nc(NC3CCC3)c3occc3n2)cc1 [B.2.5] | 100 to 1000 nM | – | – |
| Cc1n[nH]c2cc(Nc3nc(N(C)C4CC4)c4occc4n3)ccc12 [J.1.4] | 100 to 1000 nM | – | – |
| O=C1CCc2ccc(Nc3nc(NC4CCC4)c4occc4n3)cc2N1 [B.5.107] | < 100 nM | – | – |
| Cc1cc(Nc2nc(NC3CC3)c3occc3n2)ccc1OC(C)C [B.5.46] | 100 to 1000 nM | – | – |
| O=S(=O)(Nc1ccccn1)c1ccc(Nc2nc(NC3CC3)c3occc3n2)cc1 [B.5.135] | 100 to 1000 nM | – | – |
| Clc1cc(Nc2nc(NCC3CCNCC3)c3occc3n2)ccc1N1CCOCC1 [C.1.10] | – | 100 to 1000 nM | – |
| COCCCNC(=O)c1ccc(Nc2nc(NC3CC3)c3occc3n2)cc1 [B.5.9] | 100 to 1000 nM | – | – |
| CNCC1CCN(c2nc(Nc3ccc4c(cnn4C)c3)nc3ccoc23)CC1 [C.1.49] | – | < 100 nM | – |
| FC(F)CNCC1CCN(c2nc(Nc3ccc(N4CCOCC4)c(Cl)c3)nc3ccoc23)CC1 [B.5.85] | < 100 nM | – | – |
| CN1CCN(c2ccc(Nc3nc(NC4CC4)c4occc4n3)cc2F)CC1 [B.5.34] | 100 to 1000 nM | – | – |
| O=C1COc2ccc(Nc3nc(NC4CCC4)c4occc4n3)cc2N1 [B.5.103] | 100 to 1000 nM | – | – |
| c1cc2nc(Nc3ccc(N4CCOCC4)cc3)nc(NC3CC3)c2o1 [B.5.18] | 100 to 1000 nM | – | – |
| NS(=O)(=O)c1ccc(Nc2nc(NC3CC3)c3occc3n2)cc1 [B.1.2] | 100 to 1000 nM | – | – |
| CC1(C)Sc2ccc(Nc3nc(NC4CC4)c4occc4n3)cc2NC1=O [B.5.31] | < 100 nM | – | – |
| CNCC1CCN(c2nc(Nc3ccc(C(C)(C)C#N)cc3)nc3ccoc23)CC1 [C.1.57] | – | < 100 nM | – |
| Cc1n[nH]c2cc(Nc3nc(NCc4cccnc4)c4occc4n3)ccc12 [J.1.12] | 100 to 1000 nM | – | – |
| CC1(C)Cc2ccc(Nc3nc(NC4CC4)c4occc4n3)cc2NC1=O [B.5.41] | < 100 nM | – | – |
| CC(=O)N(C)c1ccc(Nc2nc(N3CCC(CNCC(F)F)CC3)c3occc3n2)cc1 [B.5.22] | 100 to 1000 nM | – | – |
| NS(=O)(=O)c1cccc(Nc2nc(NC3CC3)c3occc3n2)c1 [B.5.24] | 100 to 1000 nM | – | – |

| Structure (SMILES) | IC50 [1] | IC50 (Syk IC50, class symbols A-D) | other results |
| --- | --- | --- | --- |
| O=c1[nH]c2cc(Nc3nc(NC4CC4)c4occc4n3)ccc2cc1CO [B.5.50] | 100 to 1000 nM | – | – |
| CNCc1ncc2n1CCN(c1nc(Nc3ccc4cn[nH]c4c3)nc3ccoc13)C2 [C.1.19] | – | 100 to 1000 nM | – |
| CCNc1nc(Nc2ccc3c(c2)NC(=O)C(C)(C)O3)nc2ccoc12 [B.5.39] | – | – | IC50 [2]: 100 to 1000 nM |
| O=C1Nc2cc(Nc3nc(NC4CC4)c4occc4n3)ccc2OC1(F)F [B.5.40] | < 100 nM | – | – |
| CC1(C)Oc2ccc(Nc3nc(N4CCCC(N)CC4)c4occc4n3)cc2NC1=O (stereo not shown) [C.1.30] | – | < 100 nM | – |
| c1cc2nc(Nc3ccc4cnoc4c3)nc(NC3CC3)c2o1 [B.5.127] | 100 to 1000 nM | – | – |
| CC1(C)C(=O)Nc2cc(Nc3nc(N4CCC(CNCCC(F)(F)F)CC4)c4occc4n3)ccc21 [B.5.102] | < 100 nM | – | – |
| Cc1n[nH]c2cc(Nc3nc(N4CCC(CCN)CC4)c4occc4n3)ccc12 [C.1.72] | – | 100 to 1000 nM | – |
| Clc1cc(Nc2nc(NC3CCC3)c3occc3n2)ccc1N1CCOCC1 [B.5.2] | < 100 nM | – | – |
| OCc1cccc(Nc2nc(NC3CC3)c3occc3n2)c1 [B.5.29] | 100 to 1000 nM | – | – |
| CNCC1CCN(c2nc(Nc3ccc4cn[nH]c4c3)nc3ccoc23)CC1 [C.1.23] | – | < 100 nM | – |
| CC(=O)N(C)c1ccc(Nc2nc(NC3CCC3)c3occc3n2)cc1 [B.5.1] | 100 to 1000 nM | – | – |
| CC1(C)Oc2ccc(Nc3nc(N4CCCC(C(N)=O)C4)c4occc4n3)cc2NC1=O (stereo not shown) [B.5.78] | – | – | IC50 [2]: 100 to 1000 nM |
| NCC1CCN(c2nc(Nc3ccc4c(c3)NC(=O)CC4)nc3ccoc23)CC1 [C.1.61] | – | < 100 nM | – |
| Cn1ncc2cc(Nc3nc(N4CCC(CNCC(F)F)CC4)c4occc4n3)ccc21 [B.5.75] | 100 to 1000 nM | – | – |
| Cc1n[nH]c2cc(Nc3nc(NC4CCC4)c4occc4n3)ccc12 [B.5.106] | < 100 nM | – | – |
| CC1(C)Oc2ccc(Nc3nc(N4CCC(CN)(CC5CC5)CC4)c4occc4n3)cc2NC1=O [C.1.66] | – | < 100 nM | – |
| CC(C)CNc1nc(Nc2ccc3c(c2)NC(=O)CCC3)nc2ccoc12 [B.5.118] | 100 to 1000 nM | – | – |
| NC(=O)C1CCCN(c2nc(Nc3ccc(S(N)(=O)=O)cc3)nc3ccoc23)C1 (stereo not shown) [B.2.4] | 100 to 1000 nM | – | – |
| CC1(C)Oc2ccc(Nc3nc(NCCC(N)=O)c4occc4n3)cc2NC1=O [B.5.66] | – | – | IC50 [2]: 100 to 1000 nM |
| CNCC1CCN(c2nc(Nc3ccc4c(c3)NC(=O)C(C)(C)O4)nc3ccoc23)C1 (stereo not shown) [C.1.53] | – | 100 to 1000 nM | – |

| Structure (SMILES) | IC50 [1] | IC50 (Syk IC50, class symbols A-D) | other results |
| --- | --- | --- | --- |
| c1cc2nc(Nc3ccc4[nH]ncc4c3)nc(NC3CC3)c2o1 [C.1.20] | – | < 100 nM | – |
| CC1(C)C(=O)Nc2cc(Nc3nc(N4CCC5(CCCNC5)CC4)c4occc4n3)ccc21 [C.1.37] | – | < 100 nM | – |
| c1cc2nc(Nc3ccc4c(NC5CCOCC5)n[nH]c4c3)nc(NC3CC3)c2o1 [B.5.128] | < 100 nM | – | – |
| CC(=O)Nc1cccc(Nc2nc(NC3CC3)c3occc3n2)c1 [B.5.23] | 100 to 1000 nM | – | – |
| Cc1cc(=O)[nH]c2cc(Nc3nc(NC4CC4)c4occc4n3)ccc12 [B.5.35] | < 100 nM | – | – |
| NCC1CCN(c2nc(Nc3ccc4cn[nH]c4c3)nc3ccoc23)CC1 [C.1.9] | – | < 100 nM | – |
| Cc1n[nH]c2cc(Nc3nc(N4CCc5nc[nH]c5C4)c4occc4n3)ccc12 [Example #AK.1, 4-(6,7-Dihydro-3H-imidazo[4,5-c]pyridin-5(4H)-yl)-N-(3-methyl-1H-indazol-6-yl)furo[3,2-d]pyrimidin-2-amine] | < 100 nM | – | – |
| CN1CCN(c2ccc(Nc3nc(NC4CC4)c4occc4n3)cc2Cl)CC1 [B.1, N^2-(3-Chloro-4-(4-methylpiperazin-1-yl)phenyl)-N^4-cyclopropylfuro[3,2-d]pyrimidine-2,4-diamine] | 100 to 1000 nM | – | – |
| CC1(C)Oc2ccc(Nc3nc(N4CCCC(O)C4)c4occc4n3)cc2NC1=O (stereo not shown) [B.5.126] | – | – | IC50 [2]: 100 to 1000 nM |
| c1cc2ccc(Nc3nc(NC4CC4)c4occc4n3)cc2[nH]1 [J.1.3] | 100 to 1000 nM | – | – |
| CC1(C)Oc2ccc(Nc3nc(N4CCC(CCO)CC4)c4occc4n3)cc2NC1=O [B.5.124] | – | – | IC50 [2]: 100 to 1000 nM |
| CC1(C)Oc2ccc(Nc3nc(N4CCc5ccccc5C4)c4occc4n3)cc2NC1=O [B.5.16] | – | – | IC50 [2]: 100 to 1000 nM |
| CCCNc1nc(Nc2ccc3c(c2)NC(=O)CCC3)nc2ccoc12 [B.5.115] | 100 to 1000 nM | – | – |
| NCC1CCN(c2nc(Nc3ccc4c(c3)CCC(=O)N4)nc3ccoc23)CC1 [C.1.5] | – | < 100 nM | – |
| CC(=O)N1CCN(c2ccc(Nc3nc(N4CCC(CN)CC4)c4occc4n3)cc2)CC1 [C.1.4] | – | < 100 nM | – |
| FC(F)CNCC1CCN(c2nc(Nc3ccc4cn[nH]c4c3)nc3ccoc23)CC1 [C.1.14] | – | < 100 nM | – |
| c1cc2nc(Nc3ccc4cn[nH]c4c3)nc(NC3CCC3)c2o1 [C.1.3] | – | < 100 nM | – |
| O=C1CCCc2ccc(Nc3nc(NC4CC4)c4occc4n3)cc2N1 [Example #8, 8-(4-(Cyclopropylamino)furo[3,2-d]pyrimidin-2-ylamino)-4,5-dihydro-1H-benzo[b]azepin-2(3H)-one] | < 100 nM | – | – |
| Cc1n[nH]c2cc(Nc3nc(N4CCC(/C(N)=N/O)CC4)c4occc4n3)ccc12 [Example #4, (Z)—N′-Hydroxy-1-(2-(3-methyl-1H-indazol-6-ylamino)furo[3,2-d]pyrimidin-4-yl)piperidine-4-carboximidamide] | 100 to 1000 nM | – | – |

Where two headings read alike, the source gives them in different places.
